Measurements taken from PMC4336329 (PLoS ONE, 2015).
The whole screen tested about 310,000 compounds, of which about 14,000 (4.5%) showed an effect of 50% or more. Effects have a minus sign here. The list shows a part of the results.

target: human ether-à-go-go-related gene (hERG) potassium channel (human, UniProt Q12809); test: primary screen, population patch clamp on CHO cells stably expressing hERG
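Also: peak tail current of the secondary pulse compared with the same well before compound.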

Chain of human ether-à-go-go-related gene (hERG) potassium channel (Q12809 whole entry, looked up): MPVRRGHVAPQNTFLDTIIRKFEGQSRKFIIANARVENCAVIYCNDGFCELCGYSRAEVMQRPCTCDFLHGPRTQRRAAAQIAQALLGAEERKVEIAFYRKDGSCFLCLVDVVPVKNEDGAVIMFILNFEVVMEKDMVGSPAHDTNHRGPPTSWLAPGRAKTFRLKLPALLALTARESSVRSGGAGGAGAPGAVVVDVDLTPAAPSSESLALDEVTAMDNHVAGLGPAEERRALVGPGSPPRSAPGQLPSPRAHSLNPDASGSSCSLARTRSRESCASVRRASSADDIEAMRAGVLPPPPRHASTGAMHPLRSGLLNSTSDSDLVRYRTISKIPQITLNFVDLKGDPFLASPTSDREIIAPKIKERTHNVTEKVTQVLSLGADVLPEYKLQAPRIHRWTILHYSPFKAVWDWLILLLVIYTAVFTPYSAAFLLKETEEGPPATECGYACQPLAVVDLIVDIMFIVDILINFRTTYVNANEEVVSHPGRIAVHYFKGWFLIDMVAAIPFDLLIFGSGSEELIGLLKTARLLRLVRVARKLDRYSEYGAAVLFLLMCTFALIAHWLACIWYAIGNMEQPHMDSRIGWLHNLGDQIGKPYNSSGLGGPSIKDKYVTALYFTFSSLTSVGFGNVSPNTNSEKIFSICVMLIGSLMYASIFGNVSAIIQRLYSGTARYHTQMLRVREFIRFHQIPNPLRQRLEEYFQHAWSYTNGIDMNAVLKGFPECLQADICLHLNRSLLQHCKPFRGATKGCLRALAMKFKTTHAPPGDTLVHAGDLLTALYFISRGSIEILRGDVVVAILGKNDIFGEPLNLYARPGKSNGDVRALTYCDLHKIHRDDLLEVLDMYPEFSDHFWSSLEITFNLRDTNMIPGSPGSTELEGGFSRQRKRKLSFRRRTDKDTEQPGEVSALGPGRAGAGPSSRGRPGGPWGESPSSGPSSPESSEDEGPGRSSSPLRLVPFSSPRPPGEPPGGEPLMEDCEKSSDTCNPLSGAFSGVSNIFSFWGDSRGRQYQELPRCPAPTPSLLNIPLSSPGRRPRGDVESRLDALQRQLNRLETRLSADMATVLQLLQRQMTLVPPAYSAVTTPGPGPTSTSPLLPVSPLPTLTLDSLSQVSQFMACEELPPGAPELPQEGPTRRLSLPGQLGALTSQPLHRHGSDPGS

Row | SMILES | hERG current change (%, negative = inhibition) at 10uM [%]
1 | O=C(CNC(=O)c1ccccc1F)OCc1nc2ccc(Cl)cc2n1CCO | -32.6
2 | O=C(Cc1ccc(Br)cc1)c1ccc(O)cc1O | 14.3
3 | COc1ccc(/C=C/C(=O)N(C)C2CCS(=O)(=O)C2)cc1OC (stereo not shown) | 2.01
4 | CC(=O)Oc1ccc(C2(C)CC(C)(C)NC(=S)N2C)c(OC(C)=O)c1 (stereo not shown) | 12.1
5 | O=C(C1=C[C@H](c2csc3ccccc23)C[C@H](OCCCCO)O1)N1CCN(Cc2ccccc2)CC1 | -28.6
6 | N/C(=N\OC(=O)c1cccnc1)c1ccc(Cl)cc1Cl | 12.7
7 | COCCn1c(SCC(=O)c2ccc(Cl)cc2)nnc1C(C)C | 7.06
8 | O=C(NCC(c1ccco1)N1CCc2ccccc21)c1cccc(F)c1 (stereo not shown) | -19.4
9 | O=C(N(c1ccccn1)c1ccccn1)C12CC3CC(CC(Cl)(C3)C1)C2 | 11.5
10 | Cc1cc(=O)oc2cc(OCC(=O)NCCCN3CCCC3=O)c(Cl)cc12 | 1.84
11 | Cc1ccc(S(=O)(=O)NCCNC(=O)c2nonc2N)cc1 | 21.6
12 | O=C(Nc1ccc(F)c(F)c1)c1oc2ccccc2c1NC(=O)C1CCCO1 (stereo not shown) | 7.59
13 | Brc1ccccc1OCCCN1CCCCCC1.O=C(O)C(=O)O | -72.6
14 | Cc1ccc(S(=O)(=O)c2c(N)n(NC(=O)c3ccccc3C)c3nc4ccccc4nc23)cc1 | -5.04
15 | CCCCN(C)CCn1c(=S)[nH]c2ccc(N3CCOCC3)cc2c1=O | -26
16 | CCOc1ccc(C(=O)N2CCCC2C(=O)O)cc1 (stereo not shown) | 19.4
17 | COc1ccc(CNC2CCCCC2C)c(OC)c1 (stereo not shown) | -56.9
18 | CCCCN1C(C)=CC(=C2C(=O)c3ccccc3C2=O)C=C1C | 3.87
19 | C=CCN1C(=O)c2ccc(C(=O)OCC(=O)N(CC)C3CCS(=O)(=O)C3)cc2C1=O (stereo not shown) | -13.8
20 | CCN(CC)C(=O)CSc1nnc(-c2cccnc2)n1CCc1ccccc1 | -5.95
21 | CN(C)NC(=S)Nc1ccc2nc(-c3ccccn3)c(-c3ccccn3)nc2c1 | 8.39
22 | COc1ccc2c(c1OC)C(=O)N1N=C(c3ccc(Cl)cc3)CC21 (stereo not shown) | -28.3

Row | SMILES | hERG current change (%, negative = inhibition) at 10uM [%]
23 | CCc1nc(C#N)c(N2CCCCC2)o1 | 16.2
24 | Cn1ccnc1SCc1cn2cc(Br)ccc2n1 | -5.22
25 | Oc1ccc(-c2nnc(-c3ccc(O)cc3)nn2)cc1 | 14.7
26 | COc1cc(C(=O)NCCC(=O)NCCN2CCCCCC2)cc(OC)c1OC | -6.34
27 | CCOc1ccc(-c2c(C(=O)N/N=C/c3cccnc3)nnn2-c2nonc2N)cc1 | 9.94
28 | CC(C)[C@H](NC(=O)[C@@H]1Cc2ccccc2CN1C(=O)OC(C)(C)C)C(=O)NC1CCCC1 | 16
29 | CC(C)NC(=O)Cn1c(SCC(=O)N2CCCc3ccccc32)nc2ccccc21 | 11.6
30 | CC(=O)c1ccc(NC(=S)N2CCN(c3cccc(Cl)c3)CC2)cc1 | -16.2
31 | CCOc1ccc(C(=O)Nc2ccccc2C#N)cc1[N+](=O)[O-] | -55.6
32 | CCOCCCn1c(SCC(=O)N(C)C2CCS(=O)(=O)C2)nc2ccccc2c1=O (stereo not shown) | -37.5
33 | COc1ccc(NC(=O)N2C3CCCC2CC(NC(=O)c2ccccc2)C3)cc1 (stereo not shown) | -15.9
34 | C=C(C)CNC(=S)NNC(=O)c1ccc(Br)cc1 | 6.24
35 | COc1ccc(Cl)c(NC(=O)C/C(C)=N/NC(=O)CCc2ccccc2)c1 | -1.95
36 | COc1ccc(C2SCC(=O)N2c2c(C)n(C)n(-c3ccccc3)c2=O)cc1 (stereo not shown) | -2.6
37 | CN1CCN(c2ccc([N+](=O)[O-])cc2/C=N/NC(=O)c2cccc([N+](=O)[O-])c2)CC1 | -54
38 | N#Cc1cccnc1N1CCN(C(=O)c2ccco2)CC1 | 9.49
39 | CC(=O)c1ccccc1OCCCN1CCCCC1.O=C(O)C(=O)O | -31.8
40 | N/C(=N\S(=O)(=O)c1cc(C(F)(F)F)cc(C(F)(F)F)c1)c1cccs1 | 4.04
41 | CCOC(=O)N1CCN(C(=O)CN(c2cc(Cl)ccc2OC)S(=O)(=O)c2ccccc2)CC1 | -19.4
42 | CSCCC1NC(=O)N(CC(=O)Nc2cccc3ccccc23)C1=O (stereo not shown) | 9.36
43 | CC(NC(=O)c1cccc(N2CCCC2=O)c1)c1ccc2c(c1)OCCO2 (stereo not shown) | -8.45
44 | CN(Cc1nc(Cc2cccc(F)c2)no1)CC1CCOCC1 | -5.15

Row | SMILES | hERG current change (%, negative = inhibition) at 10uM [%]
45 | COc1ccc(OC)c(S(=O)(=O)Nc2ccc(-c3ccc4nnc(C)n4n3)cc2)c1 | -40.9
46 | COc1ccc(CCNC(=O)C(=O)NN=C2CCCCCCC2)cc1OC | 3.73
47 | Cc1c(C)c2ccc(OCC(=O)NCCc3c[nH]c4ccccc34)c(C)c2oc1=O | 5.65
48 | COc1ccc(C(C)NC(=O)c2ccc(Br)cc2)cc1OC (stereo not shown) | 6.85
49 | Cc1oc(-c2ccc(Cl)cc2)nc1CN1CCC(C(=O)N2CCc3ccccc3C2)CC1 | -74
50 | Cc1csc2c(=O)sc(NC(=O)c3ccco3)nc12 | 10.4
51 | Cc1cc(C)nc(N(C#N)S(=O)(=O)c2ccccc2Cl)n1 | 4.83
52 | COc1ccc(N(CC(=O)N/N=C/c2ccc(N(C)C)cc2)S(=O)(=O)c2ccccc2)cc1 | 14.5
53 | COc1ccc2oc(C(=O)NCCC(C)C)c(C)c2c1 | -0.78
54 | O=C(OCCOc1cccc(Cl)c1)c1ccc2ncsc2c1 | 8.09
55 | CC1c2cc3c(cc2CCN1C(=O)c1ccc(C(F)(F)F)cc1)OCCCO3 (stereo not shown) | -9.34
56 | Cc1cccc(C(=O)OCC(=O)c2cccc(Br)c2)c1O | 8.72
57 | COc1ccc(C(C(=O)NC2CCCCC2)N(C(=O)c2sc(C)nc2C)c2ccccc2)cc1 (stereo not shown) | 16.4
58 | Cc1nc2ccccc2c(C)c1CC(=O)OC(C)C(=O)NC1(C#N)CCCCC1 (stereo not shown) | -1.38
59 | O=C(NNC(=O)c1cnccc1C(F)(F)F)c1ccccc1 | -1.02
60 | CCOc1ccc(C(C)=O)cc1COC(=O)c1cc([N+](=O)[O-])ccc1N1CCOCC1 | -15
61 | CCOc1cccc(/C=N/NS(=O)(=O)c2ccc(C)c([N+](=O)[O-])c2)c1O | 21.3
62 | Cc1c(NC(=S)Nc2ccccc2)c(=O)n(-c2ccccc2)n1C | 32.9
63 | O=C(CCN1C(=O)/C(=C/c2cccs2)SC1=S)Nc1ccc(C(=O)O)c(O)c1 | 17.8
64 | O=C(/C=C/c1ccc(F)cc1)Nc1ccc2[nH]c(=O)[nH]c2c1 | 5.92
65 | CC(C)Oc1ccc(C(CC(=O)O)NC(=O)Cc2ccccc2)cc1 (stereo not shown) | 22.1
66 | CC(=O)Nc1cccc(N2C(=O)CCC2=O)c1 | 15.7

Row | SMILES | hERG current change (%, negative = inhibition) at 10uM [%]
67 | O=C(/C=C/c1ccccn1)c1cc(Cl)cc(Cl)c1O | -1.41
68 | O=C(Nc1cccn2ncnc12)C(Cl)Cl | 11.1
69 | CCOC(=O)C1CCN(C(=O)Nc2ccc(Cl)cc2Cl)CC1 | 22.2
70 | CC1CCN(c2nc(-c3ccc(F)cc3)cc(C(F)(F)F)n2)CC1 | 15.6
71 | COc1ccc(S(=O)(=O)NCc2ccc(C(=O)NCCCN3CC(C)CC(C)C3)cc2)cc1 (stereo not shown) | -28.1
72 | COc1ccc(C2=NN(C(=O)CCC(=O)O)C(c3ccc(Br)cc3)C2)cc1 (stereo not shown) | 29.9
73 | O=c1oc2ccccc2c(NCc2ccc(Cl)cc2)c1[N+](=O)[O-] | 6.7
74 | Cc1sc2ncn(CC(=O)NCCCC(=O)NCc3ccc(F)cc3)c(=O)c2c1C | -3.55
75 | Cc1ccc(S(=O)(=O)Nc2cc(C)nn2-c2ccccc2)cc1 | 9.75
76 | Cc1ccc(CNC(=O)C2CCCN(S(=O)(=O)c3c(C)n[nH]c3C)C2)cc1 (stereo not shown) | -3.47
77 | O=C(NCC1CCCO1)c1cccc(N2CCCC2=O)c1 (stereo not shown) | 7.82
78 | CCN(CC)c1ccc(NC(=O)COC(=O)c2cccs2)cc1.O=S(=O)(O)O | -9.32
79 | O=C(Nc1ccc(SC(F)F)cc1)C1=CC=CN2CCS(=O)(=O)N=C12 | -40.1
80 | Cc1ccc2nc3c(nc2c1C)CCCC3 | 0.0719
81 | Cc1nn(-c2ccccc2)c2c1cc1c(=O)n(C)c(=O)nc-1n2-c1ccccc1F | -5.94
82 | O=C(COc1ccccc1)N(Cc1nnc(-c2ccccc2Cl)o1)C1CC1 | -15
83 | CN1/C(=C\C(=O)COc2ccc3c(c2)OCO3)C(C)(C)c2ccccc21 | -2.98
84 | Cn1cc(CN2CCc3c([nH]c4ccccc34)C2C(C)(C)C)cn1 (stereo not shown) | -19.8
85 | CN1CCN(c2nc3ccccn3c(=O)c2C=C(C#N)C#N)CC1 | 4.08
86 | Cc1ccc(S(=O)(=O)NCC2NCCc3ccccc32)cc1 (stereo not shown) | -13.6
87 | CC(C)c1nnc(NC(=O)C2c3ccccc3Oc3ccccc32)s1 | 2.2
88 | Cc1ccc(S(=O)(=O)N2CCN(C(=O)CN3C(=O)c4ccc([N+](=O)[O-])cc4C3=O)CC2)cc1C | 1.58
